# Experimental data: article PMC4336329 (PLoS ONE, 2015)
# In all, about 310,000 compounds went through this assay and about 14,000 (4.5%) showed an effect of 50% or more. Effects have a minus sign here. Some of the results follow.
# Target: human ether-à-go-go-related gene (hERG) potassium channel (human, UniProt Q12809)
# Assay: primary screen, population patch clamp on CHO cells stably expressing hERG
# 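Further: peak tail current of the secondary pulse compared with the same well before compound.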
# Sequence of human ether-à-go-go-related gene (hERG) potassium channel (Q12809 whole entry, looked up): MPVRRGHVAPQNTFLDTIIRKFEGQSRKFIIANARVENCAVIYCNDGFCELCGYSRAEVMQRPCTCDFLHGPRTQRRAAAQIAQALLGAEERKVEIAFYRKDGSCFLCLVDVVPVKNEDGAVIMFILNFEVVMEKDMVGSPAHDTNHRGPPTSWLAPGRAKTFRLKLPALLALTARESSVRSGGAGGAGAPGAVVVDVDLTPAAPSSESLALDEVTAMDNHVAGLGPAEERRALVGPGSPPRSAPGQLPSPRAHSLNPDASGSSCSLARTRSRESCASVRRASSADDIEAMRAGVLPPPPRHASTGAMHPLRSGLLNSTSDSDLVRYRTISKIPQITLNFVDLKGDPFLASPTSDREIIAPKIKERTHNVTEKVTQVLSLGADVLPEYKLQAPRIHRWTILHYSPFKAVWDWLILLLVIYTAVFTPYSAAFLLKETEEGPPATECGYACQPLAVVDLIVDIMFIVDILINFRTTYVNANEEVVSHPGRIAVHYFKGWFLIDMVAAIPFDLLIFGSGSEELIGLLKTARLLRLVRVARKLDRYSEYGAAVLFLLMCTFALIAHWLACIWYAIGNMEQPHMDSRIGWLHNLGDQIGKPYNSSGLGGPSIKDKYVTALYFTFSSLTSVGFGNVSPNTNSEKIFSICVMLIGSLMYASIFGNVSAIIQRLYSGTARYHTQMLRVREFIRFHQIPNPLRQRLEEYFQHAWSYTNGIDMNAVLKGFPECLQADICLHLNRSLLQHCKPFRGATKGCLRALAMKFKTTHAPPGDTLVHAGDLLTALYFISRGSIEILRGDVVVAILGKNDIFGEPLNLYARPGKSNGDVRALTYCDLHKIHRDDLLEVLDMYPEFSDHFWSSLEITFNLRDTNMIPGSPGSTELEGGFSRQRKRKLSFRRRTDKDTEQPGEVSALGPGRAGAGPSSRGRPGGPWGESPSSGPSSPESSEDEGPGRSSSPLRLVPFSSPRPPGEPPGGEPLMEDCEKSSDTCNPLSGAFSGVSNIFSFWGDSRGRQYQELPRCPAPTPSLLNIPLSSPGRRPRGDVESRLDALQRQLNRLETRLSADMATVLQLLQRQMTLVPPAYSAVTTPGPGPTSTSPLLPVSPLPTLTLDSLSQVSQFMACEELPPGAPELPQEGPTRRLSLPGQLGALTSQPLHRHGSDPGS
row,SMILES,"hERG current change (%, negative = inhibition) at 10uM [%]"
1,COC(=O)C(Cc1c[nH]c2ccccc12)NC(=O)c1cccc(S(=O)(=O)N2CCCCC2)c1 (stereo not drawn),-3.04
2,O=C1[C@@H]2Cc3c([nH]c4ccccc34)C(c3ccccc3)N2C(=O)CN1C1CCN(Cc2ccccc2)CC1 (stereo partly drawn),-39.6
3,Cc1ccc(/C=C/C(=O)O)cc1S(=O)(=O)N(C)CCO,-4.65
4,CN1CCC(NC(=O)Cc2c(F)cccc2Cl)CC1,-1.52
5,Cc1ccc2nc(Nc3ccc(Cl)cc3)c3nncn3c2c1,11.5
6,CN(CCCC(=O)Nc1nccs1)S(=O)(=O)c1ccc(Cl)cc1,-10.1
7,COC(=O)Nc1nc(-c2ccccc2)c(C(=O)c2ccccc2)s1,1.29
8,CCN(CC)C(=S)NC(=O)c1ccc(OC)c(Br)c1,15
9,CC(C)(C)c1ccc(C(=O)NNC(=O)c2cccc(Br)c2)cc1,9.58
10,CN(CC(=O)Nc1cccc(F)c1)C(=O)c1cc(S(=O)(=O)N2CCN(c3ccccc3)CC2)ccc1Cl,-10.8
11,Nc1cc(=O)[nH]c(SCC(=O)Nc2ccccc2-c2ccccc2)n1,10.5
12,COc1ccc(C2CC(c3ccccc3C)n3nc(N)nc3N2)cc1 (stereo not drawn),-16.1
13,CCCCCC(=O)Nc1ccc(-c2csc(N)n2)cc1,26.6
14,O=C(/C=C/c1ccco1)Nc1cccc2cccnc12,-1.87
15,O=C(Nc1ccc(NC(=S)NC(=O)c2ccccc2F)cc1)c1cccs1,5.1
16,Cc1cc(-c2nc(C)c(C(=O)NNS(=O)(=O)c3cccc(C(F)(F)F)c3)s2)no1,1.2
17,C/C(=N\NC(=O)c1cc(-c2ccncc2)nc2ccccc12)c1ccc(OC(F)F)cc1,-56.1
18,O=C1/C(=C/c2cc([N+](=O)[O-])ccc2Cl)N2CCC1CC2,-12.6
19,CCCCNC(=O)c1onc(CSc2ccncc2)c1C(=O)NCCCC,6.24
20,COc1cccc(NC(=O)C(=O)c2cn(CC(=O)N3CCCC3)c3ccccc23)c1,-3.12
21,CCC(Sc1nc2cc(OC)c(OC)cc2c(=O)n1Cc1ccc(OC)cc1)C(=O)NCCOC (stereo not drawn),7

row,SMILES,"hERG current change (%, negative = inhibition) at 10uM [%]"
1,Cc1cc(C)nc(SCC(=O)c2ccc(O)c(O)c2)n1,16.3
2,Cc1c(Cl)ccc2sc(NC(=O)CN3C(=O)c4ccccc4C3=O)nc12,12.5
3,Cc1c(NC(=O)C(C)OC(=O)CC2Sc3ccccc3NC2=O)c(=O)n(-c2ccccc2)n1C (stereo not drawn),-2.58
4,CC(=O)c1cccc(N(C(=O)Cn2nnc3ccccc32)C(C(=O)NC2CCCCC2)c2cn(C)nc2C)c1 (stereo not drawn),-6.1
5,CC1(C)Cc2c(c(=S)nc(-c3ccccc3)n2CCN2CCOCC2)CO1,8e-05
6,CCN(C(=O)CN(C)Cc1cccc(Cl)c1Cl)c1c(N)n(Cc2ccccc2)c(=O)[nH]c1=O,7.1
7,CN1CCN(c2ccc(S(=O)(=O)N3CCCCC3)cc2NC(=O)c2cccc([N+](=O)[O-])c2)CC1,-65.8
8,CCCNC(=O)CCc1c(C)nc2nc(-c3cc(OC)cc(OC)c3)nn2c1C,-17.7
9,CC(C)CCNC(=O)NC(=O)CSc1nnc(COc2ccccc2Cl)o1,-30.2
10,N#CCc1ccc(NC(=O)c2cc(S(=O)(=O)N3CCOCC3)ccc2Cl)cc1,1.8
11,CCNc1c(NC(=O)COc2ccc(Cl)cc2)c(=O)oc2ccccc12,-17.1
12,COc1ccc(N2C(=O)C3CCCN3C2c2cccc(C)c2)cc1 (stereo not drawn),4.65
13,CSCCC(NC(=O)c1ccccc1Br)C(=O)NCCCn1nc(C)cc1C (stereo not drawn),-16.6
14,O=C1Nc2ccccc2C1(O)C/C(=N/O)c1ccccc1 (stereo not drawn),6.77
15,CCOC(=O)C1=C(COC(=O)c2c(OC)cccc2OC)NC(=O)NC1C (stereo not drawn),-3.86
16,CN(c1ccccc1C(=O)Nc1ccc2c(c1)OCCO2)S(C)(=O)=O,-8.65
17,O=C(O)/C(=C\c1ccc(Cl)cc1)c1ccc(S(=O)(=O)N2CCCC2)s1,-33.9
18,O=C(COc1ccccc1)NC(=S)Nc1ccc2c3c(cccc13)CC2,4.16
19,CC1=C(C(=O)Nc2cccc(C(=O)NC3CCCCC3C)c2)SCCO1 (stereo not drawn),-17.8
20,O=C(NCCN1CCNC1=O)C1CCC(=O)N(Cc2ccccc2F)C1 (stereo not drawn),0.273
21,Cc1ccc(-c2cc(C(F)(F)F)n3ncc(C(=O)NCc4ccco4)c3n2)cc1,-5.6

row,SMILES,"hERG current change (%, negative = inhibition) at 10uM [%]"
1,O=C(O)CSc1nnc(-c2ccncc2)n1CCc1ccccc1,-2.09
2,COCCNC(=O)C1CCN(S(=O)(=O)N2CCC3(CC2)OCCO3)CC1,15.7
3,Cc1[nH]c2ccccc2c1C(=O)CSc1nncn1C,11
4,O=C(O)CCCC(=O)Nc1ccc(N=Nc2ccccc2)cc1,14.5
5,CC(=O)Nc1ccc(-c2csc(NC(=O)CCCc3cccs3)n2)cc1,6.06
6,COc1cc([C@H]2[C@@H]3CCCC[C@]3(O)CCN2CC(=O)Nc2ccc(C)cc2C)ccc1O,-11
7,O=C(Cn1c(=O)cnc2ccccc21)N1CCN(S(=O)(=O)c2ccccc2Br)CC1,11
8,CCOC(=O)c1c(CSc2ccc(CC)cc2)oc2ccc(O)c(CN(C)C)c12.Cl,-55.3
9,O=C(CC(c1ccccc1)c1ccco1)N1CCOCC1 (stereo not drawn),-4.08
10,COCCN(C(=O)C1CC1)c1nnc(-c2ccc(C)cc2)s1,16.5
11,CC1Cc2ccccc2N1C(=O)COC(=O)c1ccc(Cl)c(S(=O)(=O)N2CCOCC2)c1 (stereo not drawn),-49.9
12,O=C(CN1C(=O)C2C3c4ccccc4C(c4ccccc43)C2C1=O)Nc1ccccc1C(=O)O (stereo not drawn),10.4
13,CCOC(=O)c1ccc(NC(=O)c2cc(F)c(F)cc2Cl)cc1,-6.48
14,Cc1ccc(Nc2nc(N)[nH]c(=O)c2N=O)cc1,27.6
15,COCCN(C(=O)COC(=O)Cc1cccc2ccccc12)c1c(N)n(Cc2ccccc2)c(=O)[nH]c1=O,-23.1
16,CC1=CC=CN2C1=NC(=O)CC2(C)C(=O)N(CC(=O)NC1CCCC1)c1ccccc1C (stereo not drawn),18.8
17,CC(C)C(=O)NNC(=O)CSc1nnnn1C(C)C,13
18,COc1ccccc1OCc1ccc(C(=O)N/N=C/c2ccco2)cc1,13
19,O=C(NC(=S)Nc1ccc(Cl)c(C(=O)O)c1)c1ccc(OCc2ccccc2)cc1,15.1
20,OCCCn1c(C2CCCN2c2nc(-c3ccc(F)cc3)cs2)nc2cc(C(F)(F)F)ccc21 (stereo not drawn),-21
21,Cc1ccc(S(=O)(=O)CC(=O)Nc2nnc(C)s2)cc1,-4.92

row,SMILES,"hERG current change (%, negative = inhibition) at 10uM [%]"
1,O=C(Nc1ccc(Cl)cc1)c1ccc(S(=O)(=O)N2CCOCC2)cc1,-0.19
2,Cc1nn(C)c(C)c1/C=C/C(=O)c1ccc(Cl)cc1Cl,-18.2
3,C/C(=N\NC(=O)c1cccs1)C(C)(C)C,5.21
4,CN(CC(=O)Nc1ccccc1C(F)(F)F)C(=O)C1CCN(S(=O)(=O)c2ccc3c(c2)OCCO3)CC1,-3.2
5,COc1ccccc1NC(=S)NC(NC(=O)CC(C)C)C(Cl)(Cl)Cl (stereo not drawn),22.2
6,O=C(Nc1ccc(OCC(=O)N2CCOCC2)cc1)c1ccccc1F,11.7
7,N/C(=N\S(=O)(=O)c1ccc(Cl)s1)c1ccccc1,-11.8
8,Cc1ccccc1NC(=O)Cc1nc(COC(=O)CNS(=O)(=O)c2cccc(Br)c2)cs1,-14
9,CCC(C)Nc1nc(N)c([N+](=O)[O-])c(Nc2ccccc2OC)n1 (stereo not drawn),-17.4
10,COc1ccc(/C=C2\SC(=S)N(CCC(=O)NC3=NCCS3)C2=O)cc1OC,7.22
11,C/C(=N\NC(=O)c1nnn(-c2nonc2N)c1CN(C)c1ccccc1)c1ccccc1O,20.3
12,CC(=O)NC1(c2ccc(F)cc2)CCN(C(=O)Nc2ccc(F)cc2F)CC1,2.01
13,O=c1c2ccccc2nc(/C=C/c2ccccc2)n1CCc1ccccc1,-5.9
14,COc1ccc(N(CC(=O)NC2CCCCC2)C(=O)CNC(=O)c2cccs2)cc1,-11.8
15,COc1ccccc1-c1coc2c(CN3CCOCC3)c(O)ccc2c1=O,8.17
16,CCS(=O)(=O)c1ccc(O)c(NC(=O)COc2ccc(C)cc2)c1,-30.2
17,O=C(CSc1ncnc2c1oc1ccccc12)NCc1ccc(F)cc1,-5.72
18,COc1ccc(/C=C2\Oc3cc(OCC(=O)N4CCC(C(=O)O)CC4)ccc3C2=O)c(OC)c1OC,9.72
19,O=C(CSc1nnc(COc2ccc(Cl)cc2)n1Cc1ccco1)c1ccccc1F,13.1
20,COC(=O)C1=C(C)N(c2ccc(F)cc2)C(=O)C1,-2.42
21,COc1ccc(NC(C)=O)cc1NC(=O)c1cccc(C(F)(F)F)c1,-15.4
